B1: PhoQ; a variant is named by its letters at X, in order, P23837 (parent)
chain: MKKLLRLFFPLSLRVRFLLATAAVVLVLSLAYGMVALIGYSVSFDKTTFRLLRGESNLFYTLAKWENNKLHVELPENIDKQSPTMTLIYDENGQLLWAQRDVPWLMKMIQPDWLKSNGFHEIEADVNDTSLLLSGDHSIQQQLQEVREDDDDAEMTHSVAVNVYPATSRMPKLTIVVVDTIPVELKSSYMVWSWFIYVLSANLLLVIPLLWVAAWWSLRPIEALAKEVRELEEHNRELLNPATTRELTSLVRNLNRLLKSERERYDKYRTTLTDLTHSLKTPLXXLQXXLRSLRSEKMSVSDAEPVMLEQISRISQQIGYYLHRASMRGGTLLSRELHPVAPLLDNLTSALNKVYQRKGVNISLDISPEISFVGEQNDFVEVMGNVLDNACKYCLEFVEISARQTDEHLYIVVEDDGPGIPLSKREVIFDRGQRVDTLRPGQGVGLAVAREITEQYEGKIVAGESMLGGARMEVIFGRQHSAPKDE

Some of the results follow.

This passage reports enrichment ratio results from a collection of fitness landscapes (doi:10.1126/science.1257360).

Variants of B1 are the subject of the assay. In words: enrichment ratio after two sorts for PhoP signalling (ratio (wild type AVST 3.29)); higher = more functional. To be noted: with PhoP (E. coli).
Turning to DRHN, the enrichment ratio was no more than 0.25.

Turning to SFPN, the enrichment ratio is no more than 0.25.

In the case of WPDY, the enrichment ratio was no more than 0.25.

For FGNC, the enrichment ratio is no more than 0.25.

AGYF: the enrichment ratio was no more than 0.25.

For ECLR, the enrichment ratio was no more than 0.25.

On to GGQV, for which the enrichment ratio was no more than 0.25.

Turning to TVDA, the enrichment ratio is no more than 0.25.

Turning to QVRY, the enrichment ratio is no more than 0.25.

As to GTSS, the enrichment ratio worked out at 1.17.

As for IPKL, the enrichment ratio was no more than 0.25.

For the variant EERS, the enrichment ratio was no more than 0.25.

For the variant GAMQ, the enrichment ratio is no more than 0.25.

Take ATRL: the enrichment ratio was no more than 0.25.

On to VFVW, for which the enrichment ratio was no more than 0.25.

RSVL: the enrichment ratio is no more than 0.25.

In the case of HTTT, the enrichment ratio is no more than 0.25.

Regarding ARIG, the enrichment ratio is no more than 0.25.

As to MEVC, the enrichment ratio was no more than 0.25.

In the case of IDGL, the enrichment ratio was no more than 0.25.

In the case of VKNG, the enrichment ratio is no more than 0.25.

For YHRI, the enrichment ratio was no more than 0.25.

Regarding GKYA, the enrichment ratio is no more than 0.25.

As for KLVF, the enrichment ratio was no more than 0.25.

With MWDE, the enrichment ratio was no more than 0.25.

As for RRFV, the enrichment ratio was no more than 0.25.

For NCMN, the enrichment ratio was no more than 0.25.

PGPY: the enrichment ratio is no more than 0.25.

Turning to RFFQ, the enrichment ratio is no more than 0.25.

Regarding SCVA, the enrichment ratio was 4.93.

For the variant RLSP, the enrichment ratio is no more than 0.25.

SESP: the enrichment ratio is no more than 0.25.

With MSFW, the enrichment ratio is no more than 0.25.

Regarding MCPP, the enrichment ratio is no more than 0.25.

Consider QWLF, for which the enrichment ratio was no more than 0.25.

GSGN: the enrichment ratio was no more than 0.25.

As for HYTF, the enrichment ratio was no more than 0.25.

On to YYTV, for which the enrichment ratio is no more than 0.25.

Regarding PQPA, the enrichment ratio was no more than 0.25.

Turning to ITYG, the enrichment ratio is no more than 0.25.

In the case of AICA, the enrichment ratio is 3.23.

Turning to TEVN, the enrichment ratio was found to be 9.1.

Regarding QGIA, the enrichment ratio is no more than 0.25.

In the case of PIMQ, the enrichment ratio was no more than 0.25.

For the variant WGSY, the enrichment ratio was no more than 0.25.

Consider TCDP, for which the enrichment ratio was no more than 0.25.

For DFLV, the enrichment ratio is no more than 0.25.

Consider VAVL, for which the enrichment ratio is no more than 0.25.

As for YHMQ, the enrichment ratio was 0.346.

With EKDR, the enrichment ratio is no more than 0.25.

As for IYMK, the enrichment ratio was no more than 0.25.

As for WTMI, the enrichment ratio was no more than 0.25.

Consider RGRH, for which the enrichment ratio was no more than 0.25.

For DKWW, the enrichment ratio was no more than 0.25.

In the case of WTLI, the enrichment ratio was no more than 0.25.

On to GNCG, for which the enrichment ratio is no more than 0.25.

LENR: the enrichment ratio is no more than 0.25.

For the variant QGEF, the enrichment ratio is no more than 0.25.

As to SEKF, the enrichment ratio was no more than 0.25.

Consider FFCD, for which the enrichment ratio is no more than 0.25.

For the variant DWPS, the enrichment ratio was no more than 0.25.

For the variant THCQ, the enrichment ratio is 14.3.

DRCT: the enrichment ratio was no more than 0.25.

As for HPVA, the enrichment ratio was no more than 0.25.

Turning to WMLN, the enrichment ratio was no more than 0.25.

Consider HQSA, for which the enrichment ratio is no more than 0.25.

Regarding FYFP, the enrichment ratio is no more than 0.25.

Regarding SPKD, the enrichment ratio is no more than 0.25.

Take KFDY: the enrichment ratio is no more than 0.25.

Turning to TGEI, the enrichment ratio is no more than 0.25.

MGVV: the enrichment ratio is 15.6.

Turning to EMHM, the enrichment ratio is no more than 0.25.

Take SSVA: the enrichment ratio was 10.9.

QNFN: the enrichment ratio was no more than 0.25.

YSKQ: the enrichment ratio was no more than 0.25.

On to GNTK, for which the enrichment ratio was no more than 0.25.

On to YPGK, for which the enrichment ratio was no more than 0.25.

Take RGAN: the enrichment ratio was no more than 0.25.

On to YEAV, for which the enrichment ratio was no more than 0.25.

On to SCIR, for which the enrichment ratio is 0.574.

For the variant KRLE, the enrichment ratio was no more than 0.25.

On to SSNH, for which the enrichment ratio was determined as 2.35.

Take TKIH: the enrichment ratio worked out at 15.7.

For the variant FWRH, the enrichment ratio was no more than 0.25.

With LSVI, the enrichment ratio was no more than 0.25.

Take GNGA: the enrichment ratio is no more than 0.25.

For the variant AIYS, the enrichment ratio was 0.289.

Take LRHH: the enrichment ratio is no more than 0.25.

Turning to HPLL, the enrichment ratio is no more than 0.25.

In the case of VFCF, the enrichment ratio is no more than 0.25.

DKWG: the enrichment ratio was no more than 0.25.

In the case of GNVD, the enrichment ratio was no more than 0.25.

AKCG: the enrichment ratio was found to be 2.88.

Regarding VLNM, the enrichment ratio was no more than 0.25.

Turning to MEKS, the enrichment ratio was no more than 0.25.

For FRSR, the enrichment ratio was no more than 0.25.

With RYSI, the enrichment ratio is no more than 0.25.

VHSY: the enrichment ratio was no more than 0.25.

In the case of LAAY, the enrichment ratio was no more than 0.25.

TEVT: the enrichment ratio stood at 3.71.

On to NMLV, for which the enrichment ratio was no more than 0.25.

For the variant IETC, the enrichment ratio is no more than 0.25.

Consider AMTT, for which the enrichment ratio is no more than 0.25.

As to SCIC, the enrichment ratio came out at 7.92.

Consider MAPY, for which the enrichment ratio is no more than 0.25.

On to FCSN, for which the enrichment ratio was no more than 0.25.

On to QTDM, for which the enrichment ratio was no more than 0.25.

In the case of LHTF, the enrichment ratio is no more than 0.25.

As to DRSK, the enrichment ratio was no more than 0.25.

As to WWFN, the enrichment ratio is no more than 0.25.

Consider LDTS, for which the enrichment ratio is no more than 0.25.

For the variant YKKM, the enrichment ratio was no more than 0.25.

Turning to TLYL, the enrichment ratio came to 2.86.

With SLKR, the enrichment ratio was no more than 0.25.

Turning to MVYR, the enrichment ratio was no more than 0.25.

Take PLVY: the enrichment ratio was no more than 0.25.

Consider WRIQ, for which the enrichment ratio is no more than 0.25.

Turning to LHEA, the enrichment ratio is no more than 0.25.

On to YDIC, for which the enrichment ratio is no more than 0.25.

On to LTTR, for which the enrichment ratio was no more than 0.25.

Consider YYLC, for which the enrichment ratio was no more than 0.25.

Consider WCRQ, for which the enrichment ratio was no more than 0.25.

Consider HNCA, for which the enrichment ratio is no more than 0.25.

Consider WSAV, for which the enrichment ratio was no more than 0.25.

Turning to QRMI, the enrichment ratio is no more than 0.25.

In the case of HGCQ, the enrichment ratio is no more than 0.25.

For the variant NDMP, the enrichment ratio was no more than 0.25.

On to QLRH, for which the enrichment ratio was no more than 0.25.

Take FSHA: the enrichment ratio was no more than 0.25.

For the variant NFNC, the enrichment ratio was no more than 0.25.

For the variant WTMY, the enrichment ratio is no more than 0.25.

On to RTVY, for which the enrichment ratio was no more than 0.25.

With TSSL, the enrichment ratio is 13.7.

In the case of WVFA, the enrichment ratio was no more than 0.25.

With EFHK, the enrichment ratio is no more than 0.25.

With IIKI, the enrichment ratio was no more than 0.25.

In the case of GPNL, the enrichment ratio is 0.342.

As to EARM, the enrichment ratio is no more than 0.25.

Take MSAC: the enrichment ratio turned out to be 10.3.

Take RAPF: the enrichment ratio was no more than 0.25.

NKMY: the enrichment ratio was no more than 0.25.

Consider LTGR, for which the enrichment ratio was no more than 0.25.

In the case of MCAI, the enrichment ratio stood at 8.95.

As to QTMS, the enrichment ratio is no more than 0.25.

In the case of AFFG, the enrichment ratio was no more than 0.25.

On to VGGM, for which the enrichment ratio is no more than 0.25.

On to WNMH, for which the enrichment ratio is no more than 0.25.

Regarding LKYR, the enrichment ratio came out at 0.543.

Regarding LWSL, the enrichment ratio is no more than 0.25.

As for TFIT, the enrichment ratio is no more than 0.25.

Turning to TVIR, the enrichment ratio is no more than 0.25.

ETPR: the enrichment ratio is no more than 0.25.

Take LAAD: the enrichment ratio was no more than 0.25.
